Data from PMC4336329 (PLoS ONE, 2015).
Hit rate of the full screen: of about 310,000 compounds, about 2,200 (0.71%) showed an effect of 50% or more. Effects have a minus sign here. Some of the results follow.

The molecules below were run against human ether-à-go-go-related gene (hERG) potassium channel (human, UniProt Q12809) (assay: primary screen, population patch clamp on CHO cells stably expressing hERG).
Chain of human ether-à-go-go-related gene (hERG) potassium channel (Q12809 whole entry, looked up): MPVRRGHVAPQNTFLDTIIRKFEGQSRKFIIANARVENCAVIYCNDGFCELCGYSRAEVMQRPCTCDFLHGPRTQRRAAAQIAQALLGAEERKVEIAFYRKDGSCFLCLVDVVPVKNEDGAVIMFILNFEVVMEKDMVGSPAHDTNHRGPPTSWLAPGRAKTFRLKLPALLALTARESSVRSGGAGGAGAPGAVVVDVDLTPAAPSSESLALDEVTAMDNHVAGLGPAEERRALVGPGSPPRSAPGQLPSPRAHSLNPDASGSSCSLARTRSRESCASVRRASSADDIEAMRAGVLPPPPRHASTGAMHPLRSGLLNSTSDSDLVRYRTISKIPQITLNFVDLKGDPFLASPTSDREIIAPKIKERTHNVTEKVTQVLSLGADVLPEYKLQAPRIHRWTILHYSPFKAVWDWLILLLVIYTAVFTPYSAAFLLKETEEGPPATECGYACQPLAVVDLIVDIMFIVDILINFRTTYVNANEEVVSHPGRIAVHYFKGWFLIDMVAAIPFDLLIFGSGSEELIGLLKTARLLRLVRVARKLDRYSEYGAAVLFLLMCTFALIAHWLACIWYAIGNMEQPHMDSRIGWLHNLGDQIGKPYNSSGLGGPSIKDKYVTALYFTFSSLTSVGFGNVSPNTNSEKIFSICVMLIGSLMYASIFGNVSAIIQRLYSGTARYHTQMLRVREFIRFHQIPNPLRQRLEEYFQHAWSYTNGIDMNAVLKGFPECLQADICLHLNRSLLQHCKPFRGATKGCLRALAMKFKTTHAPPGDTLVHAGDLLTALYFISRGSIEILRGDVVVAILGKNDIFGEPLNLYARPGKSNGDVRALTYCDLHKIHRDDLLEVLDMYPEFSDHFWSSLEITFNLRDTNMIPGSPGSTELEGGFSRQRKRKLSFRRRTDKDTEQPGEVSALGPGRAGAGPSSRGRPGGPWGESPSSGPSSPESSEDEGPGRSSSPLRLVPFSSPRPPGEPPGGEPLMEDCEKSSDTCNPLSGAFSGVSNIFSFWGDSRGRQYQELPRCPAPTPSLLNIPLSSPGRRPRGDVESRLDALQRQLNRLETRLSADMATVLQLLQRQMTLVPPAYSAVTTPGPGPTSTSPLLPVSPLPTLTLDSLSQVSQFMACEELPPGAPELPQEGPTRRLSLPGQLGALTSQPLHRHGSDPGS

Structure (SMILES) | hERG current change (%, negative = inhibition) at 1uM
Cn1sc(NC(=O)c2ccc(Cl)cc2)nc1=O | 3.83%
O=C(NCCc1ccccc1)c1cc(-c2ccncc2)nc2ccc(S(=O)(=O)N3CCOCC3)cc12 | 11.9%
CCCCNC(=O)COC(=O)c1c2c(nc3ccccc13)CCC2 | 13.1%
Cc1onc(-c2c(F)cccc2Cl)c1C(=O)N=C(N)N1CCCC1 | 10.2%
Cc1c(Cl)cccc1NC(=S)N1CCN(c2ccc([N+](=O)[O-])cn2)CC1 | 15.7%
COC(=O)c1cc(CNC(=O)c2sccc2-c2ccccc2)ccc1OC | 6.21%
COc1cccc2c(=O)n(CC(=O)N3CCc4ccccc43)ccc12 | 0.712%
COCCNc1c2c(nc3c(-c4ccccc4)c(C)nn13)CCCC2 | 5.77%
COc1ccc(CN2CCNC(=O)C2CC(=O)NCc2csc(C)n2)c(F)c1 (stereo not shown) | 15.3%
CC1CN(C2CCN(S(=O)(=O)c3ccc4ccccc4c3)CC2)CC(C)O1 (stereo not shown) | 18.6%
O=C(CSc1nncn1-c1cccnc1)N1CCOCC1 | 10.6%
CCN(CC)CCOC(=O)c1ccc(N/C=C(/C#N)c2nc(-c3cc4ccccc4oc3=O)cs2)cc1 | 5.18%
Cc1ccc(S(=O)(=O)/N=C(\N)Nc2nc(C)c3ccccc3n2)cc1 | 4.57%
CS(=O)(=O)c1ccccc1C(=O)Nc1cccc(-c2nc3ccccc3o2)c1 | 12.9%
C#CCSc1nccc(-c2nn(-c3ccc(C)cc3)ccc2=O)n1 | 9.13%
CC1CCC(NC(=O)CN(C)S(=O)(=O)c2ccc3c(c2)CCC(=O)N3)CC1 (stereo not shown) | 13.1%
Cc1ccc(C)c(NS(=O)(=O)c2ccc(-c3coc(C)n3)cc2)c1 | 12.1%
COc1cc(/C=C2/OC(=O)c3cc([N+](=O)[O-])ccc32)cc(OC)c1OC | 14.2%
O=C(Nc1cccc(-c2cn3ccccc3n2)c1)c1ccccc1 | 0.927%
COc1ccccc1NC(=O)N1CCCC1C(=O)NCc1ccc2c(c1)OCO2 (stereo not shown) | 11.9%
COc1nc(N(C#N)CC(N)=O)nc(N2CCCC2)n1 | 11%
CCOC(=O)c1c(-c2cccc3ccccc23)csc1NC(=O)C1C2CCC(O2)C1C(=O)O (stereo not shown) | 7.1%

Structure (SMILES) | hERG current change (%, negative = inhibition) at 1uM
CN(C)c1ccc(/C=N/NC(=O)c2ccc3nc[nH]c3c2)cc1 | 2.85%
Cc1cnc(C(=O)N2CCCC(N3CCN(c4cccc(C(F)(F)F)c4)CC3)C2)cn1 (stereo not shown) | 0.878%
O=C(CCCOc1ccc(Cl)cc1Cl)Nc1ncccn1 | 15.6%
Cc1c(NC(=O)c2ccc(N3C(=O)C4C5C=CC(C5)C4C3=O)cc2)c(=O)n(-c2ccccc2)n1C (stereo not shown) | 20.4%
COc1ccc(Cl)cc1S(=O)(=O)N1CCC(C(=O)NCC2CCCO2)CC1 (stereo not shown) | -11.3%
Cc1ccc(S(=O)(=O)CCSc2n[nH]c(=O)n2-c2ccccc2)cc1 | 3.43%
CCN(CC)Cc1c(C(=O)N/N=C/c2ccco2)nnn1-c1nonc1N | 5.64%
COc1ccc(OC)c(NC(=O)CN2CCC(NC(=O)c3ccccc3C)CC2)c1 | -4.31%
CC(CNC(=O)c1ccc(C#N)cc1)NC(=O)c1ccc(C#N)cc1 (stereo not shown) | -81.9%
CC1(C)CC(=O)c2sc(NC(=O)C3COc4ccccc4O3)nc2C1 (stereo not shown) | 9.32%
CCCC#CCN1CCN(C23CC4CC(CC(C4)C2)C3)CC1 | 7.17%
COc1ccc(N2CCN(C(=O)c3cc4ccccc4o3)CC2)cc1 | 19.4%
Cc1ccc2c(c1)C1CN(C)CCC1N2C(=O)COc1ccc(S(=O)(=O)N2CCOCC2)cc1 (stereo not shown) | 1.42%
COCC(C)NCc1cccc([N+](=O)[O-])c1.O=C(O)C(=O)O (stereo not shown) | -2.04%
Cc1ccc(CN2CCNC(=O)C2CC(=O)N2CCN(c3ncccn3)CC2)o1 (stereo not shown) | 12.4%
Cn1ccc(-c2ccccc2)c(C#N)c1=O | 8.97%
COc1ccc(OC)c(NC(=O)C2CCCCC2)c1 | 10.7%
c1ccc2c(c1)CCN(Cc1nnnn1Cc1ccc3c(c1)OCO3)C2 | 16.7%
Cc1c(C(=O)O)sc(=S)n1-c1ccccc1 | 10.3%
CCOC(=O)N1CCN(c2c(-c3ccc(C(C)C)cc3)c(=O)c2=O)CC1 | -0.0588%
CCCCCCCCCCCC(=O)N/N=C/c1ccco1 | -8.44%
